According to the supplement of paper PMC3724861:
The list shows a part of the results.

Test system: T1, Caupolican (Caup) homeodomain DNA-binding domain
T1 sequence: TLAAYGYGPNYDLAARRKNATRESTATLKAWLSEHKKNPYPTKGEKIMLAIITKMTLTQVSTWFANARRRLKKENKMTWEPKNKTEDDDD
Assay: PBM E-score (8-mer, recovered from the published 9-mer minima) (E-score (dimensionless, -0.5 to 0.5)); Drosophila protein; higher = stronger relative binding preference, active = 0.31 or more
Procedure, shortened: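 An enrichment score, with higher meaning stronger, expresses relative binding preference for each short DNA word. The protein used was Caup's homeodomain DNA-binding domain (residues 214-303), produced by in vitro transcription and translation and tested at 100 nM on custom-designed protein binding microarrays. The 8-mer values were recovered from published 9-mer scores, each equal to the lower of its two constituent 8-mer scores.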

Sequence	PBM E-score
CACTGAAC	inactive: 0.08
ACGCGGTC	inactive: -0.118
ACCACCTA	inactive: 0.0794
AAAGGTAG	inactive: -0.0595
CTGCCCCC	inactive: -0.251
CTGACGCC	inactive: -0.159
ACGCAACC	inactive: -0.0259
ACTCATAA	inactive: 0.077
AGCTCATG	inactive: 0.0148
CTCTAAAG	inactive: -0.0918
CGCGGCTA	inactive: -0.184
CGGAGTCC	inactive: -0.0906
GCATTGCA	inactive: -0.0386
AAGGGCAC	inactive: -0.142
AGAGCACG	inactive: -0.0138
CCATCTAA	inactive: -0.065
GGAATCAC	inactive: 0.0534
GCACGAAC	inactive: 0.0338
CGCTAGCA	inactive: 0.0145
AATCACGT	inactive: 0.134
AACAACTG	inactive: 0.208
GATAAGGA	inactive: 0.0879
GGAAATGA	inactive: 0.0251
AACACTAA	inactive: 0.166
CAGATCGA	inactive: 0.0528

Sequence	PBM E-score
ATGTCGGG	inactive: 0.189
TGGCTGAA	inactive: -0.108
AGGCCGAG	inactive: -0.146
AGGTATGG	inactive: -0.108
CATAAACC	inactive: 0.0813
CCTACTCG	inactive: -0.089
AGGGGAAC	inactive: -0.181
ACTTTAGC	inactive: -0.101
AAGATGCC	inactive: -0.104
CTCCAAAG	inactive: -0.048
GGTTTTCA	inactive: 0.00673
GCTTTCCA	inactive: -0.113
ATGTTGGA	inactive: 0.198
AAAAAACT	inactive: 0.0351
ATGTCTAC	inactive: 0.19
GATACATC	inactive: 0.297
GCGTGCAC	inactive: -0.0425
CGTCCTAA	inactive: -0.0546
TACTCTGA	inactive: 0.0244
ATAATGCC	inactive: 0.0429
CATTTCCC	inactive: 0.0455
TTCTAAAA	inactive: 0.0346
GTTAAAAC	inactive: 0.0744
GACCTAGA	inactive: -0.0889
CGCGTTAC	inactive: 0.0398

Sequence	PBM E-score
CATAACGG	inactive: 0.0573
ACTGCGCC	inactive: -0.182
ATGGAACC	inactive: -0.00509
CCTGTCAG	inactive: 0.115
AAGTAGCA	≥ 0.108
AGGATTTC	inactive: -0.0357
ACGGGTCT	inactive: -0.105
GAAGGGCA	inactive: -0.168
CAGTCACC	inactive: -0.061
CGAATAGC	inactive: 0.0209
AAAATACA	inactive: 0.263
GTCCGTTA	inactive: 0.118
AGACAGGG	inactive: -0.0685
ACAACTTA	inactive: 0.268
ATAACAAA	inactive: 0.205
ACCTTGTG	inactive: 0.0927
GACTTTAA	inactive: 0.0173
CACTGCCG	inactive: -0.173
ATCTCTAC	inactive: 0.13
AGCCTGTG	inactive: -0.0477
ACATCGGA	≥ 0.166
CCCCCACG	inactive: -0.312
GTCATGCA	inactive: 0.111
CAGTGCTA	inactive: -0.0583
CTTCCTGC	inactive: -0.209

Sequence	PBM E-score
AGTTATTA	inactive: 0.161
CTATAACC	inactive: 0.126
CCATGCGG	inactive: -0.187
AAATTAAG	inactive: 0.0652
GCGAAGGA	inactive: -0.0775
AGGACTTG	inactive: 0.0496
AAGTTCCC	inactive: -0.202
GCCCCAGC	inactive: -0.257
GTATAGGA	inactive: 0.0342
CACCTTCC	inactive: -0.0194
TGCTGCCA	inactive: -0.0702
CCCATCAA	inactive: -0.0524
GAGAACAA	inactive: 0.132
ACTGACGC	inactive: -0.129
AAAGTCTA	inactive: 0.0286
ATTCCACA	inactive: 0.121
AAACACCA	inactive: 0.179
GTTCAACA	inactive: 0.198
ACGTAGAA	inactive: 0.0144
ATCATCTC	inactive: 0.0698
ATCGCTGG	inactive: -0.114
CTAGGTCA	inactive: 0.042
AGTTTCCG	inactive: -0.135
CAGTCTAG	inactive: -0.0348
ATTGGGCA	inactive: -0.00711

Sequence	PBM E-score
ACGGCCCA	inactive: -0.237
GGTTCCAC	inactive: -0.111
CGCCCGGA	inactive: -0.206
AATCGGCG	inactive: -0.11
TAAGGTCA	inactive: -0.0368
CCATAAGG	inactive: -0.2
ACGTCGCT	≥ -0.0424
CACTGCAA	inactive: 0.0155
ACAAACGT	inactive: 0.116
ACAAAGGT	inactive: 0.0951
ACCCCTAA	inactive: -0.166
CCGGTTCG	inactive: -0.0867
AGCTGAGG	inactive: -0.169
CGAGGACC	inactive: -0.114
CGAGCGCC	inactive: -0.248
ACACACAA	inactive: 0.299
CCTGAACG	inactive: -0.0963
CTAACGAG	inactive: 0.0026
GATGCAGA	inactive: -0.0465
AGGCCCCA	inactive: -0.292
CCAACCGA	inactive: -0.122
ATAGTGCA	inactive: 0.0829
ACTGCTAA	inactive: -0.0328
CACTAGAC	inactive: -0.0475
AGCTCACA	inactive: 0.0668

Sequence	PBM E-score
CCATCCAG	inactive: -0.0848
CTCGCGGA	inactive: -0.204
AAATAGCA	inactive: 0.112
GACATTGA	inactive: 0.191
ATTTCCAA	inactive: 0.0532
AGCTTTAT	inactive: 0.03
GGATCCTA	inactive: 0.0286
AACTTAGA	≥ 0.127
AGATGGGG	inactive: -0.175
AGCCATGC	inactive: -0.0552
CGTCTGGA	inactive: -0.11
ACGAGCGT	inactive: -0.0216
CTAGAGAA	inactive: -0.0678
CTTAGAGA	inactive: -0.0641
CGACTCAC	inactive: -0.0855
CATATCCC	inactive: 0.0582
GGAAGCAC	inactive: -0.0375
AGGGGAAT	inactive: -0.0662
CGTACCTA	inactive: 0.0287
TATTGCAA	inactive: 0.109
CGCAAAAG	inactive: -0.143
GATGCCCA	inactive: -0.0463
GAGGATGC	inactive: -0.00785
TTAGTGAA	inactive: 0.101
ACTATATG	inactive: 0.107

Sequence	PBM E-score
CAAGGCCC	inactive: -0.247
AGAATCGG	inactive: -0.114
CAAAAGAC	inactive: 0.03
TAAAGTCA	≥ 0.0854
ATGTAGCA	inactive: 0.265
AAGCAAGG	inactive: -0.0328
AACCTCAG	inactive: -0.0935
TACCAGGA	inactive: 0.0883
CGGGGAGA	inactive: -0.184
CCCTAAAG	inactive: -0.168
CTGAGCTC	inactive: -0.143
CGTGATCC	inactive: -0.129
CTGGCGCC	inactive: -0.262
CACCCTAC	inactive: 0.114
CACATTGC	inactive: 0.108
CTGCCTTA	inactive: -0.137
GCATATAA	inactive: 0.134
CTCGCTCA	inactive: -0.166
CTCCGCAG	inactive: -0.249
ACTACGAC	inactive: 0.0897
ATATCTGG	inactive: 0.0284
CTTCATTC	inactive: -0.0755
TAAATCCA	inactive: 0.0483
ATACGTGG	inactive: 0.0844
GGTTTGAC	inactive: 0.0197

Sequence	PBM E-score
CGTAGAAG	inactive: -0.0399
AGTGAACT	inactive: 0.0325
CTTCCCGC	inactive: -0.131
CATACGAA	inactive: 0.0844
GTCCCCTA	inactive: -0.0942
GAGTTGAA	inactive: -0.00985
GATAAGGC	inactive: -0.0913
AAAAGGCG	inactive: -0.0753
CCTAATCC	inactive: 0.0034
AATAAATC	inactive: -0.0451
AGAGCGGG	inactive: -0.187
CGAAGGCC	inactive: -0.288
AACTGGCT	≥ -0.0296
AGGGCCCA	inactive: -0.258
ACCCATCA	inactive: 0.034
ATCCGATG	inactive: 0.0252
ATCGGTGG	inactive: -0.115
GATCTGGC	inactive: -0.0642
GGGGGCAC	inactive: -0.24
CAGAGCAC	inactive: -0.0664
GAATGGGC	inactive: -0.0726
CGCACGCG	inactive: -0.117
CCCCTTCC	inactive: -0.267
ATTCACAA	≥ 0.162
ACTAAAGG	inactive: -0.012

Sequence	PBM E-score
CGCGTTTA	inactive: 0.00596
AAGGAGAC	inactive: -0.0118
CATGGGAA	inactive: 0.0743
CTTGTGGA	inactive: 0.0455
ATGTACGG	inactive: 0.211
CTAATTAC	inactive: 0.127
AGAGTCAA	inactive: -0.0486
AGCAATAT	inactive: 0.129
GGTAATAA	inactive: 0.179
ACATGCTA	active: 0.352
CGAAGCCG	inactive: -0.15
AGGTAGCA	inactive: -0.0174
AGTTGGCG	inactive: -0.102
GATTATCA	inactive: 0.171
GACAGAGA	inactive: 0.0812
CGACGTCG	≥ 0.00514
GATGGTAA	inactive: 0.0084
AATAAAAA	inactive: 0.192
GAGTTAGA	inactive: -0.112
ACCATAGG	inactive: -0.0178
CGAAGTCG	inactive: -0.0271
AAGGGGCT	≥ -0.105
CAAGTGTG	inactive: 0.0193
CGAACACG	inactive: 0.258
